{"source": "PubChem BioAssay AID652104", "about": "(National Center for Advancing Translational Sciences (NCATS), 2013)", "note": "About 7,200 (1.8%) of roughly 410,000 compounds were called active. Inconclusive results, whose numbers are uncertain, are shown with a selection of clear calls. Calls follow the shape of the dose curve; as a rule, active = well fitted activation curve with a large enough effect; inconclusive = small, poorly fitted or top-dose-only effect, or another doubt; inactive = no such curve, though single readings can be large or run the other way. No potency is given beside an inconclusive call; the fits are too rough. Potency is read from the fitted curve at half-maximal effect; tags tell the direction and shape of the fitted curve.", "data": [{"test": "qHTS of TDP-43 Inhibitors; also: nearly all actives have a fitted effect of over 50% in size", "details": "TDP-43 expressing yeast growth rescue, BacTiter-Glo, 24 h; series mostly up to 46.1 µM", "summary_of_the_method": "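Luminescence from BacTiter-Glo reports growth of TDP-43-expressing yeast after 24 hr at 30 deg C with compound. Cells were raffinose-pregrown to mid-log, then seeded in galactose medium at OD600=0.02.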", "values": [{"compound": "CCc1ccccc1-n1c2c(cc(-c3nc(-c4ccc(Cl)cc4)cs3)c1=O)C(=O)CC(C)(C)C2", "Potency": "inactive"}, {"compound": "CCOC(=O)C1(C)CCCN(C(=O)c2ccc(C#N)cc2)C1", "note": "(stereo not drawn)", "Potency": "inconclusive [activator, full curve, poor fit]"}, {"compound": "CC1CC(C)(C)NC(=S)N1CCC(=O)Nc1ccc2c(c1)OCCO2", "note": "(stereo not drawn)", "Potency": "inconclusive [activator, single point]"}, {"compound": "COc1ccc(OC)c(S(=O)(=O)ON2C(=O)c3ccccc3C2=O)c1", "Potency": "inconclusive [activator, single point]"}, {"compound": "COC(=O)CNC(=O)COC(=O)/C=C/c1ccc2ccccc2n1", "Potency": "inactive"}, {"compound": "CN(CC(=O)Nc1ccccc1Cl)C(=O)COC(=O)c1nc(Cl)c(Cl)c(Cl)c1Cl", "Potency": "inconclusive [activator, single point]"}, {"compound": "CCOc1cc(C(=O)NC(=S)Nc2cccnc2)cc(OCC)c1OCC", "Potency": "inconclusive [activator, partial curve]"}, {"compound": "Cc1c(C(=O)NC2CCCC2)oc2ccccc12", "Potency": "inconclusive [activator, partial curve]"}, {"compound": "C/C(=N\\NS(C)(=O)=O)c1ccccc1", "Potency": "inactive"}, {"compound": "CCCSc1ncc(Cl)c(C(=O)Nc2c(C(=O)c3ccc(F)cc3)oc3ccccc23)n1", "Potency": "inconclusive [activator, single point]"}, {"compound": "COc1ccc(-n2ncc(C(=O)Nc3ccc4c(c3)OCCO4)c2C2CCN(C(=O)OC(C)(C)C)CC2)cc1", "Potency": "inactive"}, {"compound": "CCOc1ccc(CNC(=O)C2CCCN(S(=O)(=O)N(CC)c3ccc(OCC)cc3)C2)cc1", "note": "(stereo not drawn)", "Potency": "inactive"}, {"compound": "COc1ccccc1N1CCN(C(=O)Cn2c(=O)n3nc(-c4cccc(C)c4)nc3c3ccccc32)CC1", "Potency": "inactive"}, {"compound": "COc1ccc(CCNC(=O)c2c(C)nn(-c3ccc(F)cc3)c2-n2cccc2)c(OC)c1OC", "Potency": "inconclusive [activator, partial curve]"}, {"compound": "C#CCN(Cc1ccco1)C(=O)c1cc(COc2ccc(F)cc2Cl)on1", "Potency": "inconclusive [activator, partial curve]"}, {"compound": "COC(=O)CC1COc2ccccc2N1C(=O)/C=C/c1ccccc1", "note": "(stereo not drawn)", "Potency": "inconclusive [activator, partial curve]"}, {"compound": "O=C(NCC1CCCO1)c1ccc(COc2ccccc2)o1", "note": "(stereo not drawn)", "Potency": "inconclusive [activator, partial curve]"}, {"compound": "CCOC(=O)C1=CC[C@@H](c2ccccc2)N(S(=O)(=O)c2ccc(C)cc2)[C@H]1C#N", "Potency": "inconclusive [activator, partial curve]"}, {"compound": "Cc1nc2c(C(=O)NCCc3ccccc3)c[nH]n2c(=O)c1Cc1ccc(F)cc1Cl", "Potency": "inconclusive [activator, partial curve, poor fit]"}, {"compound": "O=S(=O)(/N=C(\\Sc1ccc(Cl)cc1)c1ccccc1)c1ccccc1", "Potency": "inconclusive [activator, partial curve]"}, {"compound": "CC(C)OCCCNc1nc(-c2ccccc2)nc2ccccc12", "Potency": "inconclusive [activator, partial curve, poor fit]"}, {"compound": "Cc1ccc(C(=O)O/N=C(\\N)c2ccccn2)cc1C", "Potency": "active: 10 µM"}, {"compound": "COc1ccc2[nH]cc(CCNC(=O)c3cnn(-c4ccccc4Cl)c3C3CCN(C(=O)OC(C)(C)C)CC3)c2c1", "Potency": "inconclusive [activator, partial curve, poor fit]"}, {"compound": "Cc1cccc(C)c1NC(=O)C(c1cccc2ccccc12)n1c(=O)c(-c2cc3ccccc3[nH]2)nc2ccccc21", "note": "(stereo not drawn)", "Potency": "inconclusive [activator, partial curve, poor fit]"}, {"compound": "c1ccc(Nc2c(-c3ccco3)nc3ccccn23)cc1", "Potency": "inactive"}, {"compound": "O=C(C1CCC(CNc2nc(=S)[nH]c3ccccc23)CC1)N1CCN(c2ccc(F)cc2)CC1", "note": "(stereo not drawn)", "Potency": "inconclusive [activator, single point]"}, {"compound": "CCCOc1ccc(-c2nc(N3CCN(CC)CC3)c3ccccc3n2)cc1", "Potency": "inconclusive [activator, partial curve]"}, {"compound": "O=S1(=O)CC(N2CC=CC2)CN1C1CCCCC1", "note": "(stereo not drawn)", "Potency": "inconclusive [activator, full curve]"}, {"compound": "O=C(c1ccc(Oc2ccc([N+](=O)[O-])cc2Cl)cc1)N1CCCC1", "Potency": "inconclusive [activator, partial curve]"}, {"compound": "CCn1c(CC2C(=O)N(C)c3ccccc32)nc2ccccc2c1=O", "note": "(stereo not drawn)", "Potency": "inconclusive [activator, partial curve]"}, {"compound": "CCc1ccc(S(=O)(=O)N2c3ccc(C)cc3C3CN(C)CCC32)cc1", "note": "(stereo not drawn)", "Potency": "inconclusive [activator, partial curve]"}, {"compound": "CNC(=S)N/N=C1\\CC(c2ccccc2)Oc2ccccc21", "note": "(stereo not drawn)", "Potency": "active: 22.4 µM"}, {"compound": "Cc1ccc(-n2c(C)nc3c(cnn3-c3ccccc3Cl)c2=O)cc1C", "Potency": "active: 11.2 µM"}, {"compound": "O=C(CC1SC(=O)N(c2ccccc2)C1=O)Nc1ccccc1", "note": "(stereo not drawn)", "Potency": "inactive"}, {"compound": "CCCn1c(CCC(=O)Nc2cccc(CC)c2)nc2cccnc21", "Potency": "inconclusive [activator, partial curve, poor fit]"}, {"compound": "COC(=O)COc1cccc(NC(=O)c2ccc(C)cc2)c1", "Potency": "inconclusive [activator, partial curve]"}, {"compound": "Cc1ccc(CCNC(=O)c2ccc3c(c2)c(C)c(C)n3Cc2ccccc2)cc1", "Potency": "inactive"}, {"compound": "O=C(NCc1ccc2c(c1)OCO2)C1CC(c2cccc(Br)c2)=NO1", "note": "(stereo not drawn)", "Potency": "inconclusive [activator, partial curve]"}, {"compound": "Cc1cccc(NC(=O)c2c(C)nn(-c3ccccc3)c2Cl)c1", "Potency": "inconclusive [activator, single point]"}, {"compound": "CN(C)CCOC(c1ccccc1)c1ccccc1", "Potency": "inconclusive [activator, full curve, poor fit]"}, {"compound": "CCc1nc2c(OCc3cc(Cl)cc(Cl)c3)cccn2c1N(C)C(=O)c1ccc(OC)cc1", "Potency": "inconclusive [activator, full curve, poor fit]"}, {"compound": "CC(NC(=O)c1cc2cc(F)ccc2[nH]1)c1ccccc1", "note": "(stereo not drawn)", "Potency": "inconclusive [activator, partial curve]"}, {"compound": "Nc1c(C(=O)Nc2ccccc2F)sc2nc(-c3cccnc3)ccc12", "Potency": "inconclusive [activator, full curve]"}, {"compound": "c1ccc2c(c1)CCN(c1nc3cc4c(cc3s1)OCCO4)C2", "Potency": "inconclusive [activator, single point]"}, {"compound": "Cc1ccc(Cl)cc1N1CCN(S(=O)(=O)c2ccc3c(c2)NC(=O)C(C)C(=O)N3)CC1", "note": "(stereo not drawn)", "Potency": "inactive"}, {"compound": "COc1ccc(Cl)cc1NC(=O)c1c(NCc2cccnc2)sc2c1CCC(C)C2", "note": "(stereo not drawn)", "Potency": "active: 22.4 µM"}, {"compound": "Cc1ccccc1C(=O)N(Cc1sccc1C)C1CCS(=O)(=O)C1", "note": "(stereo not drawn)", "Potency": "inconclusive [activator, full curve, poor fit]"}, {"compound": "CC(=O)c1cccc(-c2ccnc3c2CC(C(=O)Nc2ccc4c(c2)OCO4)O3)c1", "note": "(stereo not drawn)", "Potency": "active: 25.1 µM"}, {"compound": "Fc1ccc(NC(=S)NCCc2ccccc2)c(F)c1F", "Potency": "inconclusive [activator, single point]"}, {"compound": "O=C(Nc1ccc(Cl)cn1)c1cccc(S(=O)(=O)N2CCCCCC2)c1", "Potency": "inconclusive [activator, single point]"}, {"compound": "Cc1ccc(-c2ccc(/C=C3\\C(=O)ON=C3c3ccccc3)o2)c([N+](=O)[O-])c1", "Potency": "inconclusive [activator, single point]"}, {"compound": "CC(=O)c1ccc2c(c1)c(C#N)c1ccccc1[n+]2[O-]", "Potency": "inconclusive [activator, full curve]"}, {"compound": "Cc1ccsc1/C=N/NC(=O)Cc1ccc(Cl)cc1", "Potency": "inactive"}, {"compound": "Cc1nc(C)c(-c2csc(Nc3ccccn3)n2)s1", "Potency": "active: 35.5 µM"}, {"compound": "CC(C)CNC(=S)Nc1ccc(Oc2ccccc2)cc1", "Potency": "inconclusive [activator, partial curve]"}, {"compound": "O=C(CN1N=C(c2ccc(Cl)cc2)CCC1=O)NCCc1ccccc1", "Potency": "inactive"}, {"compound": "Cc1cc(OCCSc2nnc(-c3cccs3)n2C)ccc1Cl", "Potency": "inconclusive [activator, single point]"}, {"compound": "Cn1cc(Cl)c(/C=C(\\C#N)S(=O)(=O)c2ccccc2)n1", "Potency": "inconclusive [activator, partial curve]"}, {"compound": "Cc1cc(SCc2cc(=O)n3ccsc3n2)nc2ccccc12", "Potency": "active: 11.2 µM"}, {"compound": "COc1ccc(Oc2ncccc2NC(=O)c2cccc(C)c2C)cc1", "Potency": "inconclusive [activator, partial curve]"}, {"compound": "Nc1nnc(SCCCOc2ccc(F)cc2)s1", "Potency": "inconclusive [activator, partial curve]"}, {"compound": "COc1cc2c(cc1NC(=O)c1ccco1)CCCC2", "Potency": "inconclusive [activator, single point]"}, {"compound": "O=C(Nc1nc2c(s1)CCCC2)c1cccc(S(=O)(=O)N2CCCc3ccccc32)c1", "Potency": "inactive"}, {"compound": "CCCC(=O)NC(=S)Nc1ccc(N2CCN(C(=O)c3cccs3)CC2)cc1", "Potency": "inconclusive [activator, single point]"}, {"compound": "COc1cc(C(=O)NNC(=O)c2nn(C)c(=O)c3ccccc23)cc(OC)c1OC", "Potency": "active: 3.16 µM"}, {"compound": "C#CCn1c(S(=O)(=O)Cc2ccc(OC)cc2)nc(-c2ccccc2)c1-c1ccccc1", "Potency": "inactive"}, {"compound": "O=C(CC1(O)C(=O)N(Cc2ccccc2Cl)c2ccccc21)c1ccco1", "note": "(stereo not drawn)", "Potency": "inactive"}, {"compound": "Cc1cccc(Cn2c(C)nc3ccc([N+](=O)[O-])cc3c2=O)c1", "Potency": "inconclusive [activator, single point]"}]}]}
